Laboratory results published in ChEMBL document CHEMBL1154674, “Synthesis and evaluation of three 18F-labeled aminophenylbenzothiazoles as amyloid imaging agents” (J Med Chem, 2009).
The source gives many values for each of these; only a part stands here. One block for each compound: values may come before it.

Experiments:
Assay type in all cases: ADME, organism-based, Macaca mulatta
[1] = Drug level in normal rhesus monkey pons assessed as standard uptake value at 81.2 MBq, iv after 42.5 mins by microPET; conditions: in vivo
[2] = Drug level in normal rhesus monkey thalamus assessed as standard uptake value at 81.2 MBq, iv after 155 mins by microPET; conditions: in vivo
[3] = Drug level in normal rhesus monkey cerebellum assessed as standard uptake value at 81.2 MBq, iv after 52.5 mins by microPET; conditions: in vivo, 0.875 h
[4] = Drug level in normal rhesus monkey cerebellum assessed as standard uptake value at 81.2 MBq, iv after 12 mins by microPET; conditions: in vivo, 0.2 h
[5] = Drug level in normal rhesus monkey white matter assessed as standard uptake value at 81.2 MBq, iv after 1.5 mins by microPET; conditions: in vivo, 0.025 h
[6] = Drug level in normal rhesus monkey cerebellum assessed as standard uptake value at 81.2 MBq, iv after 6 mins by microPET; conditions: in vivo, 0.1 h
[7] = Drug level in normal rhesus monkey thalamus assessed as standard uptake value at 81.2 MBq, iv after 2.5 mins by microPET; conditions: in vivo
[8] = Drug level in normal rhesus monkey thalamus assessed as standard uptake value at 81.2 MBq, iv after 47.5 mins by microPET; conditions: in vivo
[9] = Drug level in normal rhesus monkey thalamus assessed as standard uptake value at 81.2 MBq, iv after 52.5 mins by microPET; conditions: in vivo, 0.875 h
[10] = Drug level in normal rhesus monkey cerebellum assessed as standard uptake value at 81.2 MBq, iv after 75 mins by microPET; conditions: in vivo, 1.25 h
[11] = Drug level in normal rhesus monkey pons assessed as standard uptake value at 81.2 MBq, iv after 47.5 mins by microPET; conditions: in vivo
[12] = Drug level in normal rhesus monkey white matter assessed as standard uptake value at 81.2 MBq, iv after 115 mins by microPET; conditions: in vivo
[13] = Drug level in normal rhesus monkey pons assessed as standard uptake value at 81.2 MBq, iv after 75 mins by microPET; conditions: in vivo, 1.25 h
[14] = Drug level in normal rhesus monkey frontal cortex assessed as standard uptake value at 81.2 MBq, iv after 175 mins by microPET; conditions: in vivo
[15] = Drug level in normal rhesus monkey white matter assessed as standard uptake value at 81.2 MBq, iv after 52.5 mins by microPET; conditions: in vivo, 0.875 h
[16] = Drug level in normal rhesus monkey thalamus assessed as standard uptake value at 81.2 MBq, iv after 75 mins by microPET; conditions: in vivo, 1.25 h
[17] = Drug level in normal rhesus monkey thalamus assessed as standard uptake value at 96.3 MBq, iv after 125 mins by microPET; conditions: in vivo
[18] = Drug level in normal rhesus monkey thalamus assessed as standard uptake value at 96.3 MBq, iv after 6 mins by microPET; conditions: in vivo, 0.1 h
[19] = Drug level in normal rhesus monkey parietal cortex assessed as standard uptake value at 96.3 MBq, iv after 4.5 mins by microPET; conditions: in vivo, 0.075 h
[20] = Drug level in normal rhesus monkey white matter assessed as standard uptake value at 96.3 MBq, iv after 115 mins by microPET; conditions: in vivo
[21] = Drug level in normal rhesus monkey parietal cortex assessed as standard uptake value at 96.3 MBq, iv after 3.5 mins by microPET; conditions: in vivo
[22] = Drug level in normal rhesus monkey parietal cortex assessed as standard uptake value at 96.3 MBq, iv after 8 mins by microPET; conditions: in vivo
[23] = Drug level in normal rhesus monkey parietal cortex assessed as standard uptake value at 96.3 MBq, iv after 145 mins by microPET; conditions: in vivo
[24] = Drug level in normal rhesus monkey white matter assessed as standard uptake value at 96.3 MBq, iv after 125 mins by microPET; conditions: in vivo
[25] = Drug level in normal rhesus monkey frontal cortex assessed as standard uptake value at 96.3 MBq, iv after 37.5 mins by microPET; conditions: in vivo, 0.625 h
[26] = Drug level in normal rhesus monkey frontal cortex assessed as standard uptake value at 96.3 MBq, iv after 22.5 mins by microPET; conditions: in vivo, 0.375 h
[27] = Drug level in normal rhesus monkey thalamus assessed as standard uptake value at 96.3 MBq, iv after 175 mins by microPET; conditions: in vivo
[28] = Drug level in normal rhesus monkey white matter assessed as standard uptake value at 96.3 MBq, iv after 10 mins by microPET; conditions: in vivo
[29] = Drug level in normal rhesus monkey white matter assessed as standard uptake value at 96.3 MBq, iv after 0.5 mins by microPET; conditions: in vivo
[30] = Drug level in normal rhesus monkey pons assessed as standard uptake value at 109.4 MBq, iv after 42.5 mins by microPET; conditions: in vivo
[31] = Drug level in normal rhesus monkey thalamus assessed as standard uptake value at 109.4 MBq, iv after 27.5 mins by microPET; conditions: in vivo
[32] = Drug level in normal rhesus monkey parietal cortex assessed as standard uptake value at 109.4 MBq, iv after 3.5 mins by microPET; conditions: in vivo
[33] = Drug level in normal rhesus monkey thalamus assessed as standard uptake value at 109.4 MBq, iv after 0.625 mins by microPET; conditions: in vivo, 38 s
[34] = Drug level in normal rhesus monkey thalamus assessed as standard uptake value at 109.4 MBq, iv after 63 mins by microPET; conditions: in vivo, 1.05 h
[35] = Drug level in normal rhesus monkey white matter assessed as standard uptake value at 109.4 MBq, iv after 6.5 mins by microPET; conditions: in vivo
[36] = Drug level in normal rhesus monkey cerebellum assessed as standard uptake value at 109.4 MBq, iv after 6.5 mins by microPET; conditions: in vivo
[37] = Drug level in normal rhesus monkey frontal cortex assessed as standard uptake value at 109.4 MBq, iv after 75 mins by microPET; conditions: in vivo, 1.25 h
[38] = Drug level in normal rhesus monkey cerebellum assessed as standard uptake value at 109.4 MBq, iv after 69 mins by microPET; conditions: in vivo, 1.15 h
[39] = Drug level in normal rhesus monkey pons assessed as standard uptake value at 109.4 MBq, iv after 111 mins by microPET; conditions: in vivo
[40] = Drug level in normal rhesus monkey pons assessed as standard uptake value at 109.4 MBq, iv after 69 mins by microPET; conditions: in vivo, 1.15 h
[41] = Drug level in normal rhesus monkey cerebellum assessed as standard uptake value at 109.4 MBq, iv after 3.5 mins by microPET; conditions: in vivo
[42] = Drug level in normal rhesus monkey pons assessed as standard uptake value at 109.4 MBq, iv after 0.125 mins by microPET; conditions: in vivo, 7 s
[43] = Drug level in normal rhesus monkey cerebellum assessed as standard uptake value at 109.4 MBq, iv after 87 mins by microPET; conditions: in vivo, 1.45 h
[44] = Drug level in normal rhesus monkey white matter assessed as standard uptake value at 109.4 MBq, iv after 42.5 mins by microPET; conditions: in vivo

- SUV [1]: 5.62
- SUV [2]: 5.03
- SUV [3]: 2.432
- SUV [4]: 2.575
- SUV [5]: 1.942
- SUV [6]: 2.617
- SUV [7]: 3.587
- SUV [8]: 5.274
- SUV [9]: 5.584
- SUV [10]: 1.924
- SUV [11]: 5.189
- SUV [12]: 4.086
- SUV [13]: 5.729
- SUV [14]: 4.233
- SUV [15]: 3.717
- SUV [16]: 5.47
Structure (SMILES): CNc1ccc2nc(-c3ccc([18F])cc3)sc2c1

- SUV [17]: 1.99
- SUV [18]: 1.95
- SUV [19]: 2.1
- SUV [20]: 1.57
- SUV [21]: 1.99
- SUV [22]: 2.17
- SUV [23]: 1.21
- SUV [24]: 1.51
- SUV [25]: 1.83
- SUV [26]: 2.09
- SUV [27]: 1.67
- SUV [28]: 1.43
- SUV [29]: 0.36
Structure (SMILES): CN(C)c1ccc2nc(-c3ccc([18F])cc3)sc2c1

- SUV [30]: 4.97
- SUV [31]: 5.5
- SUV [32]: 5
- SUV [33]: 1.58
- SUV [34]: 5.35
- SUV [35]: 2.84
- SUV [36]: 5.81
- SUV [37]: 4.56
- SUV [38]: 2.86
- SUV [39]: 4.84
- SUV [40]: 4.94
- SUV [41]: 5.85
- SUV [42]: -0.03
- SUV [43]: 2.72
- SUV [44]: 3.37
Structure (SMILES): Nc1ccc2nc(-c3ccc([18F])cc3)sc2c1
